# The other results are listed elsewhere or left out. The full chains were built here from the parent and the listed change. Values near 0.05 are background.
# B1: TEV protease; numbered along this chain (parent)
# chain: MGESLFKGPRDYNPISSSICHLTNESDGHTTSLYGIGFGPFIITNKHLFRRNNGTLVVQSLHGVFKVKDTTTLQQHLVDGRDMIIIRMPKDFPPFPQKLKFREPQREERICLVTTNFQTKSMSSMVSDTSCTFPSGDGIFWKHWIQTKDGQCGSPLVSTRDGFIVGIHSASNFTNTNNYFTSVPKNFMELLTNQEAQQWVSGWRLNADSVLWGGHKVFMVKPEEPFQPVKEATQL
# Variants of: B1
# Experiment: raw area under fraction-flipped curve 0-4 h after induction (AUC4h, not background-subtracted), DNA-recorder readout of cleavage of the substrate (dimensionless); higher = more cleavage of the substrate by the protease variant
# Details: temperature: 34 °C; time window: 0-4 h after rhamnose induction
# Method: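 In vivo DNA recorder in E. coli TOP10(DE3) ΔrhaA at 34 °C. Each TEVp single-site mutant (parent TEVp 0) is paired with a single-site variant of the 7-mer TEVs (canonical ENLYFQ|S). The substrate sits between flexible linkers in a Bxb1-sfGFP-TEVs-SsrA fusion, so cleavage stabilises Bxb1 and speeds flipping of a recombination array, read by NGS. The value is the raw area under the fraction-flipped curve over 0-4 h after rhamnose induction (AUC4h), with ≥20 reads per time point. It is not background-subtracted; inactive controls average about 0.047.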
# 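Further: Bxb1 expression induced with 0.2% (w/v) L-rhamnose at OD600 near 0.5, cultures sampled hourly, flipped fraction per protease–substrate barcode pair counted by paired-end Illumina sequencing.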
Variant,area with substrate ENLYFQA,area with substrate ENLYFQC,area with substrate ENLYFQD,area with substrate ENLYFQG,area with substrate ENLYFQH,area with substrate ENLYFQI,area with substrate ENLYFQK,area with substrate ENLYFQL,area with substrate ENLYFQM,area with substrate ENLYFQR,area with substrate ENLYFQS,area with substrate ENLYFQT,area with substrate ENLYFQW,area with substrate ENLYFQY,area with substrate ENLYFQE,area with substrate ENLYFQN,area with substrate ENLYFQV,area with substrate ENLYFQF,area with substrate ENLYFQQ,area with substrate ENLYFQP
R204K,0.105,0.12,0.0727,0.0948,0.0816,0.0671,0.063,0.0596,0.0808,0.0933,0.112,0.0667,0.0711,0.07,,,,,,
D208N,0.0821,0.0753,0.0628,0.0692,,,0.0629,0.0573,0.0706,,0.091,0.0858,0.0466,,0.0163,0.0647,0.0537,,,
K216H,0.102,0.102,0.0838,0.101,0.0759,,,0.0749,0.0945,0.0737,0.0994,0.0658,,,,0.0762,0.0663,,,
K216R,0.108,,0.0758,0.104,,,,,,,0.0858,,,,,,,,,
V220R,0.0789,,,0.107,0.0745,0.0601,,0.0677,0.107,0.0667,0.105,0.0734,0.059,0.0754,,0.0751,0.0681,0.0924,0.064,
K221R,0.124,0.0928,0.0801,0.0819,0.0793,0.0643,0.074,0.0603,0.0833,0.0616,0.105,0.0508,0.0733,0.0634,0.0743,0.0704,0.0395,0.0656,0.0727,0.0523
P222H,0.0814,0.124,0.0671,0.09,0.081,0.0571,0.0469,0.0734,0.0604,0.0564,0.0928,,0.0733,0.0686,0.0957,0.0741,0.0611,0.0661,,0.0419
E224C,0.0881,0.0904,0.0465,0.0886,0.0774,0.0749,,0.0455,,,0.0961,0.0749,0.0579,0.0622,,0.0516,0.0645,,,0.0445
E224K,0.103,0.12,0.0706,,0.0719,,,0.0597,0.0914,0.0356,0.0997,0.0668,0.0761,0.0665,,0.0731,0.064,,,
E224N,0.103,0.103,0.0781,0.0732,0.0842,0.0653,0.0582,0.0611,0.0745,0.0516,0.0961,0.0625,0.057,,0.0932,,,,0.0073,0.0592
E224R,0.0819,0.0884,0.0736,0.0956,,0.0631,0.0482,0.0582,0.0808,,0.0909,0.0641,,0.0706,,0.0903,0.0686,,,
E224S,0.102,0.096,0.0666,0.0902,,0.0684,0.0666,0.0602,0.0887,0.0549,0.095,0.0611,0.0636,,0.0644,0.106,0.0686,0.056,,0.0549
E224V,0.0861,0.0881,0.0204,0.101,0.0827,0.0682,,0.0655,0.0681,0.0513,0.0921,0.0487,0.0644,,,0.0752,,0.0694,0.0684,
E224W,0.119,0.0994,0.0627,0.0922,0.0682,0.0559,0.0649,0.0624,0.0874,0.0632,0.0969,0.0571,0.0646,,0.0529,0.0855,0.0642,0.0805,0.071,0.0606
F226C,0.1,0.121,0.0674,0.0659,,0.0459,0.0573,0.0783,0.0964,,0.111,0.0561,0.0611,0.074,,0.0931,,,,
A232C,0.0995,0.0926,,0.0927,,0.0589,,0.0569,,0.0449,0.0956,,0.0684,,0.0419,0.0759,,,,
A232G,0.1,0.133,0.078,0.117,0.0844,,,,,,0.115,,0.0865,0.101,0.0684,0.0756,,0.101,,0.0529
A232H,0.122,,,0.125,,0.0796,,0.0642,,0.0719,0.109,,0.0639,,,0.0903,,,,
A232K,0.112,0.143,,,,0.0535,,0.0764,0.115,0.0697,0.111,0.0648,0.0396,,,0.0701,,0.097,0.0763,0.0529
A232M,0.0604,,0.0793,0.123,0.0866,0.0393,,0.0805,0.0984,,0.104,0.0682,0.0632,,,0.0741,0.0624,,,0.0623
A232S,0.105,0.134,0.0698,,,,0.0622,0.0637,0.114,,0.115,0.069,0.0585,,,,,,,0.0604
A232V,0.112,,,,,,,,0.1,,0.106,,,,,0.0702,0.0116,,,
unchanged,0.101,0.115,0.0721,0.0975,0.083,0.0597,0.0642,0.0609,0.0876,0.0605,0.104,0.066,0.0676,0.0776,0.0636,0.0788,0.0604,0.0765,0.0712,0.0582
G8A,,0.117,,,,,0.0618,,0.0874,,0.101,0.0592,,,,,,,,
G8D,,0.0939,,0.0864,,,,,0.0687,0.0568,0.101,,,,,,,,,0.0487
G8F,,0.121,,,0.0983,,,0.07,,,0.091,,0.007,0.0917,,0.0846,0.0521,,,0.0764
G8K,,0.122,0.0868,0.0991,,0.0587,,0.0565,0.102,,0.104,0.0572,,,,,,,,
G8S,,0.0962,,0.0755,,,0.076,0.0432,,,0.101,,0.0687,,,,,0.0691,,0.0637

# Reference: the supplement of paper PMC12217912
